Patent publication US20130059806A1 (REGENTS OF THE UNIVERSITY OF MICHIGAN, published 2013)

What was measured:
TR2 = target: T1, TR2 (mouse, UniProt Q505F1 1-590); experiment: co-IP from untransfected MEL nuclear extract, IP with anti-TR2, immunoblot
T1 construct: Endogenous protein, immunoprecipitated or detected with a rabbit polyclonal antibody; also called NR2C1
T1 sequence (looked up): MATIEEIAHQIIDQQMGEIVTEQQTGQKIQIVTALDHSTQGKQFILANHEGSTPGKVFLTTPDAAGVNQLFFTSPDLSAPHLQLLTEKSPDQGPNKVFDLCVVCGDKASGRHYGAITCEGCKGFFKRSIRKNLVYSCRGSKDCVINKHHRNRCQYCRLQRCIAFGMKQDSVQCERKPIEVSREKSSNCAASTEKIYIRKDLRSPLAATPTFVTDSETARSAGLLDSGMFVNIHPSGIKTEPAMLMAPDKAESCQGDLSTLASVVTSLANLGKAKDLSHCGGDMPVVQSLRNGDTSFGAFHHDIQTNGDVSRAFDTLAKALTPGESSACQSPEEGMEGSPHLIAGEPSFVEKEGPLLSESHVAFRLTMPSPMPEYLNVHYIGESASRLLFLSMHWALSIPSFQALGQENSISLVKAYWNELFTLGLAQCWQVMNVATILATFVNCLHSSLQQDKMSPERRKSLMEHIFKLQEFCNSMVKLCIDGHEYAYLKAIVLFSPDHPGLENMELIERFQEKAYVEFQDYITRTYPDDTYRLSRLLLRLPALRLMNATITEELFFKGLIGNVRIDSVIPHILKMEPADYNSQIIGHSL

[1] = target: T2, biotin-FLAG-tagged TR2 and TR4 (biotin-FLAG-TR2 and biotin-FLAG-TR4 co-expressed in BirA-expressing MEL cells) (UniProt Q505F1 1-590; P49117 1-596, biotinylated on the N-terminal biotinylation tag by BirA biotin ligase); experiment: streptavidin pull-down of biotin-tagged TR2/TR4 from MEL nuclear extract, mass spectrometry and immunoblot
T2 construct: Both tagged proteins were expressed together and captured together on streptavidin beads, so a co-purified protein cannot be assigned to TR2 or TR4 alone; Associations are from nuclear extracts and may be indirect; also called biotin-tagged TR2 and TR4; biotinylated TR2/TR4; not shown: 23-amino acid biotinylation tag (de Boer et al., 2003); FLAG tag
T2 sequence (looked up) 1: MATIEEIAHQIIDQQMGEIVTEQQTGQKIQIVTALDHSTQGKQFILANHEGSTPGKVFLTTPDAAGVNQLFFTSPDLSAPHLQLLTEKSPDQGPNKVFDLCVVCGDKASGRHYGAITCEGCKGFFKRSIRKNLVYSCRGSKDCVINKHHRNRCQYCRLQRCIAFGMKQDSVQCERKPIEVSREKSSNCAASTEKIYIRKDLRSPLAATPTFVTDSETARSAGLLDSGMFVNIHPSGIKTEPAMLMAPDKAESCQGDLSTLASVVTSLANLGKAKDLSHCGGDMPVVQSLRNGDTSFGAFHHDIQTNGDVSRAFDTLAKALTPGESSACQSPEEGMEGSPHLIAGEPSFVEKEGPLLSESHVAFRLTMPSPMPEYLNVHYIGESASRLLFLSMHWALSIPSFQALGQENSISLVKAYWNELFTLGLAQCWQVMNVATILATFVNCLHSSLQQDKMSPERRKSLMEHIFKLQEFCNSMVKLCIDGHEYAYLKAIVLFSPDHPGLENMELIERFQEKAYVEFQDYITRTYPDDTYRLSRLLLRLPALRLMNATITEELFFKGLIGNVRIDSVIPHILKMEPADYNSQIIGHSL
T2 sequence (looked up) 2: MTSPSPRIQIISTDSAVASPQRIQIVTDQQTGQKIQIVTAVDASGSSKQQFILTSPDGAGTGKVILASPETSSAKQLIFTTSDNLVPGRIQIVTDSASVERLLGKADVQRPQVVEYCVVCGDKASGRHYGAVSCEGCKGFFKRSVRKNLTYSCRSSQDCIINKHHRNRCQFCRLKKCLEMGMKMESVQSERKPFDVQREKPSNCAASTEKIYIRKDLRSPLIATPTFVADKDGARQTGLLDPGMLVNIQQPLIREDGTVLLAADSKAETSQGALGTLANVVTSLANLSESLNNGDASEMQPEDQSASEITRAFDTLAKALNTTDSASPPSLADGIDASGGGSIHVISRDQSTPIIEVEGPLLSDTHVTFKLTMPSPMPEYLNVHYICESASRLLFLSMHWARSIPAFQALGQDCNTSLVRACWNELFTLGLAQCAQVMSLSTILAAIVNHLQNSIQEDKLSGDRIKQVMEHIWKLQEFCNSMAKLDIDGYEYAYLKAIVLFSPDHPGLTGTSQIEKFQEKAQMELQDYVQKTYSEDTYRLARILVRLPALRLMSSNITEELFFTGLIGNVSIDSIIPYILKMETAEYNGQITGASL

TR4 = target: T3, TR4 (mouse, UniProt P49117 1-596); experiment: co-IP from untransfected MEL nuclear extract, IP with anti-TR4, immunoblot
T3 construct: Endogenous protein, immunoprecipitated or detected with a rabbit polyclonal antibody; also called NR2C2
T3 sequence (looked up): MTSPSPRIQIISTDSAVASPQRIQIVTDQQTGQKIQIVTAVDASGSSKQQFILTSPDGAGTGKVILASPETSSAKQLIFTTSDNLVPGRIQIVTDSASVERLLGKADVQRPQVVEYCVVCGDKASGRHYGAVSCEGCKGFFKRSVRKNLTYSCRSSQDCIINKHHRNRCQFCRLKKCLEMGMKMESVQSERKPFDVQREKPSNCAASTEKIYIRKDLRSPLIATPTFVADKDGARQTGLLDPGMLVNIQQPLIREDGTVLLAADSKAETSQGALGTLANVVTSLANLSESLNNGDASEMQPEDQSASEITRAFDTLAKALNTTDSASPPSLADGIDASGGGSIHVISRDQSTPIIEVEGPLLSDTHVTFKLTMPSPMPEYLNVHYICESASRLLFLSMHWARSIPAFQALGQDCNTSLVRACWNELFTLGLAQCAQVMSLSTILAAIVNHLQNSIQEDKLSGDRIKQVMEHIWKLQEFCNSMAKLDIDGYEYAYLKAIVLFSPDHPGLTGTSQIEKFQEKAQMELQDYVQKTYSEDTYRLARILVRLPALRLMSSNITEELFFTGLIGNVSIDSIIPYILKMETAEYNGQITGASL

Measured: binding result

B1: MBD2 (other, mouse)
chain: MRAHPGGGRCCPEQEEGESAAGGSGAGGDSAIEQGGQGSALAPSPVSGVRREGARGGGRGRGRWKQAARGGGVCGRGRGRGRGRGRGRGRGRGRGRPQSGGSGLGGDGGGGAGGCGGGSGGGVAPRRDPVPFPSGSSGPGPRGPRATES[about 60 residues omitted]SKLQKNKQRLRNDPLNQNKGKPDLNTTLPIRQTASIFKQPVTKFTNHPSNKVKSDPQRMNEQPRQLFWEKRLQGLSASDVTEQIIKTMELPKGLQGVGPGSNDETLLSAVASALHTSSAPITGQVSAAVEKNPAVWLNTSQPLCKAFIVTDEDIRKQEERVQQVRKKLEEALMADILSRAADTEEVDIDMDSGDEA
no binding: all assays above
